Test results reported in PubChem BioAssay AID1346428 (National Center for Advancing Translational Sciences (NCATS), 2018).
Values joined by “and” are separate entries in the source; they are usually repeats but may differ in a detail not shown here. Equal entries are not always repeated. Out of some 48,000 compounds screened, about 1,200 (2.5%) were called active. Another 2% or so got no clear call; they are omitted.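 The calls were made as follows: active = activation of at least 60% and not above a set upper limit (about 1 call in 100 departs from these limits); inconclusive = activation of 40% to 60%, or above that upper limit; inactive = activation under 40%.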 The list shows a part of the results.

Target: Probable G-protein coupled receptor 32 (Homo sapiens) (UniProt O75388)
UniProt O75388, sequence (O75388 whole entry, looked up): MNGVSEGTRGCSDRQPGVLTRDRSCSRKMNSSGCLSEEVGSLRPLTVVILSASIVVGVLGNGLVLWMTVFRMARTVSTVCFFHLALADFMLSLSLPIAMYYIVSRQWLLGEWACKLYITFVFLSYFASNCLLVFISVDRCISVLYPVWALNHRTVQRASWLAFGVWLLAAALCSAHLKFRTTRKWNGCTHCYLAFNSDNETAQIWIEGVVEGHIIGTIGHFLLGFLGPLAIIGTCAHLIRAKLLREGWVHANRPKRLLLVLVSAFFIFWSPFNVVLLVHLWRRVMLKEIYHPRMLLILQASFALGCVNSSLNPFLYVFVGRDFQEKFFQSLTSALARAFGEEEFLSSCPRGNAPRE
Assay: qHTS for Agonists of Human Resolvin D1 Receptor DRV1; also: 0% is about no effect
Conditions: CHO-K1 GPR32 beta-arrestin PathHunter luminescence, 90 min; at 76.9 µM; active compounds read high; zero percent set by DMSO-only wells
Procedure, shortened: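 Readings come from a cell-based beta-arrestin complementation format: CHO-K1 GPR32 stable cells (2,500/well) treated 90 min with compounds, then beta-Gal substrate added for 1 h before chemiluminescence imaging.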

| SMILES | activation |
| --- | --- |
| COc1ccc2cc3cc(C(=O)N4CCN(c5ccc(C(C)=O)cc5)CC4)sc3nc2c1Cl | inactive: 3.77% |
| COc1ccc(OCC2c3cc(OC)c(OC)cc3CCN2C(=O)c2ccc(F)cc2)cc1 (stereo not drawn) | inactive: -3.95% |
| CCN(CC)CCNC(=O)c1sc2nc3n(c(=O)c2c1C)CCCCC3 | inactive: 4.31% |
| COc1ccc(C(=O)Nc2cc(-c3cccc(C)c3)nn2-c2ccccc2)cc1 | inactive: -3.59% |
| CCOC(=O)c1ccc(NC(=O)c2c(NCc3cccs3)sc3c2CCCCC3)cc1 | inactive: -4.18% |
| O=S(=O)(NCc1nc2cccnc2n1Cc1ccc(F)cc1)c1ccc2c(c1)CCCC2 | inactive: -12.1% |
| CCCC(=O)O[C@]1(C(=O)CC)CC[C@H]2[C@@H]3CCC4=CC(=O)CC[C@]4(C)[C@H]3[C@@H](O)C[C@@]21C | inactive: -5.62% |
| O=S(=O)(NCCc1csc2nc(-c3ccc(F)cc3)nn12)c1ccc(Br)cc1 | inactive: 23.4% |
| Cc1cc(NC(=O)Cn2c(=O)nc(-c3ccccc3F)c3cc(Cl)ccc32)ccc1Br | inactive: -5.98% |
| CC1=C(C(=O)Nc2ccccc2C)C(c2ccncc2)n2nc(SCc3ccccc3)nc2N1 (stereo not drawn) | inactive: -15.3% |
| Cc1ccc(NC(=O)Cn2c(=O)n(-c3ccc(Cl)c(Cl)c3)c(=O)c3c(C)c(C)sc32)c(C)c1 | inactive: -9.14% |
| Cc1cccc(Cn2c(CN3CCC(C(=O)NCc4cccnc4)CC3)cc3ccccc32)c1 | inactive: -15.5% |
| COc1cn(CC(=O)Nc2ccc(F)cc2)c(CN2CCCCC2)cc1=O | inactive: -4.28% |
| COc1cccc(CSc2nc3n(n2)C(c2cccs2)C(C(=O)Nc2ccccc2C)=C(C)N3)c1 (stereo not drawn) | inactive: 12.4% |
| CCOC(=O)c1c(N)n(-c2ccc(Cl)c(Cl)c2)c2nc3ccccc3nc12 | inactive: 19% |
| CCN1CCN(c2cc(C)c3cc(NC(=O)c4cccc(C(F)(F)F)c4)ccc3n2)CC1 | inactive: 2.08% |
| CCOC(=O)c1ccc(NC(=O)CC2C(=O)N(c3cccc(OC)c3)C(=O)N2C2CCCCC2)cc1 (stereo not drawn) | inactive: -10.8% |
| Cc1ccc(OCCn2cc(C(=O)C3CCCCC3)c3ccccc32)cc1 | inactive: -20.2% |
| CSc1ncc(Cl)c(C(=O)Nc2ccc(S(=O)(=O)N3CCC(C)CC3)cc2)n1 | inactive: -1.85% |
| COc1cccc(CNC(=O)C2CCN(c3nc4ccc(Cl)cc4[nH]3)CC2)c1 | inactive: 4.32% |
| CCCCc1cc(=O)oc2cc(C)c3c(C)coc3c12 | inactive: -11.8% |

| SMILES | activation |
| --- | --- |
| Cc1ccc(Cn2c(C(=O)Nc3cccc(Cl)c3)cc3sccc32)cc1 | inactive: -26.1% |
| COc1cc(C(=O)NC2CCCNC2)cc(OC)c1OC (stereo not drawn) | inactive: -16.3% |
| Cn1nnnc1SCCNCc1ccccc1OCc1ccccc1F | inactive: 38.4% |
| Cn1cnc(S(=O)(=O)N2CCCC(C(=O)Nc3ccc(F)cc3Cl)C2)c1 (stereo not drawn) | inactive: -14.3% |
| O=C(NCCn1cc(SCc2ccc(F)cc2)c2ccccc21)c1c(F)cccc1F | inactive: 9.17% |
| Cc1ccc(C2c3c(-c4ccccc4O)n[nH]c3C(=O)N2CCCO)cc1 (stereo not drawn) | inactive: -15.7% |
| CCOC(=O)c1cccc(NC(=O)c2ccc3c(c2)nnn3C2CCCC2)c1 | inactive: 9.34% |
| COc1cccc(C(=O)Nc2ccc(Cl)c(-c3nc4ccccc4[nH]3)c2)c1 | inactive: -5.21% |
| CSc1nc(C)cc(Nc2c(C)cc(C)cc2C)n1 | inactive: -11.3% |
| COc1ccc2c(c1)CC(NC(=O)Nc1cc(Cl)ccc1OC)CO2 (stereo not drawn) | inactive: -16.3% |
| COC(=O)c1ccc(NS(=O)(=O)c2ccc(-n3cccn3)cc2)cc1 | inactive: -6.68% |
| CC(=O)c1ccc(N2CCN(S(=O)(=O)c3ccc4c(c3)CC(C)N4C(=O)C3CCC3)CC2)cc1 (stereo not drawn) | inactive: -5.16% |
| Cc1ccc(S(=O)(=O)c2cn(C)c3cc(N4CCCCCC4)c(F)cc3c2=O)cc1 | inactive: 8.19% |
| OC[C@H]1O[C@@H](n2cnc3c(NC4CCCCC4)ncnc32)[C@H](O)[C@@H]1O | inactive: 0.139% |
| CC(=O)c1ccc(NS(=O)(=O)c2cc(-c3cnc(C4CC4)o3)ccc2C)cc1 | inactive: 18.9% |
| Cc1ccccc1NC(=O)c1ccc2nc(Cc3ccccc3)oc2c1 | inactive: -19.5% |
| Cn1c(SCc2ccc(F)cc2)nc2c([nH]c3ccccc32)c1=O | inactive: 3.7% |
| COc1ccccc1C(=O)Nc1c(C(=O)N(CCN(C)C)Cc2ccco2)oc2ccccc12 | inactive: 8.82% |
| C=Cc1ccc(Cn2c(C(=O)O)c(CNCc3cccs3)c3ccc(C)cc32)cc1 | active: 96.3% |
| Cc1ccc(Cn2c(=O)n(-c3ccccc3)c(=O)c3ccc(C(=O)NCc4ccco4)cc32)cc1 | inactive: -9.04% |
| CCOc1ccc(NC(=O)c2cc3c(-c4ccccc4F)nn(C)c3s2)cc1 | inactive: 3.11% |

| SMILES | activation |
| --- | --- |
| O=C(CCSCc1cnn(-c2ccccc2)c1-n1cccc1)NCc1ccccc1F | inactive: -2.78% |
| O=C(c1cc(=O)c2cc(Cl)ccc2o1)N(Cc1ccccc1)C1CCS(=O)(=O)C1 (stereo not drawn) | inactive: -14.6% |
| COc1cc(Cl)c(C)cc1NC(=O)c1cc2ccc3cccnc3c2[nH]1 | inactive: -0.357% |
| CC(=O)OCc1cnc(C)c2oc(=O)c(C(=O)Nc3cccc(F)c3)cc12 | inactive: -7.92% |
| Cc1ccc(-n2ncc3c(NCCCc4ccccc4)ncnc32)cc1 | inactive: 12.1% |
| Cc1nc(N2CCCC2)c2c(C(=O)Nc3cccc(Cl)c3C)c(C)oc2n1 | inactive: -27.5% |
| COc1cc2[nH]c(=O)n(Cc3ccc(C(=O)NCc4ccccc4)cc3)c(=O)c2cc1OC | inactive: -5.31% |
| COc1ccc(NC(=O)CSc2nc3nc(C)c(Cc4ccc(C)cc4)c(C)n3n2)cc1OC | inactive: 20.4% |
| CCCNC(=O)C1CCC(Cn2c(=O)c3sccc3n(Cc3ccccc3C)c2=O)CC1 (stereo not drawn) | inactive: 13.1% |
| COc1ccc(Cl)cc1-n1nnc(-c2nc(-c3ccc4c(c3)OCO4)no2)c1C | inactive: -4.19% |
| COc1ccccc1NC(=O)C(=O)c1cc(C)n(-c2ccccc2F)c1C | inactive: -28.3% |
| Cc1cccc(C)c1NC(=O)c1csc2c1CCCC2 | inactive: -14.9% |
| Cc1ccc(NC(=O)Nc2nnc(SCC(=O)Nc3ccc(F)cc3F)s2)cc1 | inactive: -3.93% |
| CCc1ccc(NC(=O)c2cc(S(=O)(=O)N3CCCCCC3)ccc2F)cc1 | inactive: -18.6% |
| CCCCN1CC(c2nc3ccccc3n2CCCCOc2ccc(C)cc2C)CC1=O (stereo not drawn) | inactive: 1.74% |
| Cc1ccc(-n2ncc3c(NCCCN4CCOCC4)ncnc32)cc1Cl | inactive: 13.9% |
| O=C(NCCCc1nc2ccccc2n1Cc1cccc(Cl)c1)c1ccco1 | inactive: -8.02% |
| COc1nc(-c2ccc(C)cc2)ccc1-c1noc(-c2ccccc2Br)n1 | inactive: -6.74% |
| COc1cc(OC)c(NC(=O)CCCn2nc(C)c3sc4ccccc4c3c2=O)cc1Cl | inactive: -18.1% |
| COC(=O)c1ccc(Cl)cc1NC(=O)N1CCCn2nc(C)cc21 | inactive: -13.9% |
| C[C@]12CC[C@@H]3c4ccc(O)cc4CC[C@H]3[C@@H]1CCC2=O | inactive: -3.88% and inactive: -1.78% |

| SMILES | activation |
| --- | --- |
| O=c1c2cccnc2n(Cc2ccccc2F)c(=O)n1Cc1ccccc1Cl | inactive: -2.82% |
| Cc1ccc(C)c(N2CCN(C(=O)CN3CCSc4ccc(S(=O)(=O)N(C)C)cc43)CC2)c1 | inactive: -5.07% |
| CC(=O)Nc1nonc1-c1nnc(SCC(=O)Nc2cc(C)cc(C)c2)n1C | inactive: -6.05% |
| CCCCOC(=O)CSc1nnc(-c2ccccc2)o1 | inactive: 7.84% |
| O=C(c1ccc(C(F)(F)F)cc1)N1CCC(c2nc(-c3ccc(S(=O)(=O)N4CCCC4)cc3)no2)CC1 | inactive: 2.2% |
| COc1cccc(NC(=O)/C(C#N)=C\c2cn(Cc3ccc(C)cc3)c3ccccc23)c1 | inactive: -9.4% |
| Cc1oc2ncn(CC(C)C)c(=O)c2c1C(=O)N1CCN(c2ccc(F)cc2)CC1 | inactive: -10.8% |
| COc1ccccc1CNc1ccc(-c2nc(C)no2)cc1[N+](=O)[O-] | inactive: -4.74% |
| COc1ccc(-c2oc3ncn4nc(-c5ccccc5Br)nc4c3c2-c2ccc(OC)cc2)cc1 | inactive: 21.5% |
| Cc1ccc2[nH]c3c(=O)n(CC(=O)N(C)c4cc(Cl)ccc4C)ncc3c2c1 | inactive: -10.3% |
| O=C(c1ccc2c(c1)N(Cc1cccc(Cl)c1)C(=O)c1ccccc1S2(=O)=O)N1CCCCC1 | inactive: -36.4% |
| Cc1ccc(C)c(NC(=O)Cn2cc(C(=O)C3CCCCC3)c3ccccc32)c1 | inactive: 5.22% |
| COc1cccc2c1Oc1ncccc1N(C(=O)CCC(=O)NCc1ccc(N(C)C)cc1)C2 | inactive: -4.35% |
| COc1cccc(NC(=O)c2oc3ccccc3c2NC(=O)c2ccc(C(F)(F)F)cc2)c1 | inactive: -1.71% |
| O=C(CN1CCCN(Cc2ccc(Cl)cc2)S1(=O)=O)Nc1ccccc1F | inactive: -7.67% |
| CCOC(=O)c1c(C)[nH]c(C)c1S(=O)(=O)N1CCC(C(=O)N2CCN(c3ccc(Cl)cc3)CC2)CC1 | inactive: -4.11% |
| COc1ccc(-n2c(=O)c3c4c(sc3n(Cc3ccccc3)c2=O)CN(C(C)=O)CC4)cc1OC | inactive: -25% |
| COc1ccccc1NC(=O)c1ccc2c(Cl)c3c(nc2c1)CCCC3 | inactive: 23.9% |
| CCOc1ccc(NC(=O)N2CC=C(c3c[nH]c4ccccc34)CC2)cc1 | inactive: -7.92% |
| CC1=C(c2ccc(C)c(C)c2)S(=O)(=O)N=C1N1CCC(C(=O)NCCc2ccc(Cl)cc2)CC1 | inactive: -6.27% |
